This is one part of the list.
These sequences were tested on T1, Caupolican (Caup) homeodomain DNA-binding domain (assay: PBM E-score (8-mer, recovered from the published 9-mer minima) (E-score (dimensionless, -0.5 to 0.5)); Drosophila protein; higher = stronger relative binding preference, active = 0.31 or more).
T1 sequence: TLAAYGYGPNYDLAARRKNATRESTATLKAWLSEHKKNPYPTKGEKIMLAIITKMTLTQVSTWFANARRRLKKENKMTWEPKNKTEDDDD
Summary of the method: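 Caup's homeodomain DNA-binding domain (residues 214-303) was made by in vitro transcription and translation and applied at 100 nM to custom-designed protein binding microarrays. Each value is an enrichment score that gives relative binding preference for a short DNA word, with higher meaning stronger. The 8-mer values were recovered from published 9-mer scores, each of which was the minimum of its two constituent 8-mer scores. A cutoff of 0.31 marks candidate sites.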

PBM E-score, inactive:
AATCGAAT 0.0651
GACTAGCA 0.0163
GCGGCAGC -0.229
TAACTATA 0.18
GCCCAGGA -0.148
AGACGATG 0.075
GACTTTCC -0.089
ATCTGCAC -0.0707
GCTGGATA 0.0778
CCGAAGCA 0.0118
CAACATTG 0.286
AGCGCGGG -0.0707
ATCCGACA 0.221
CACCACAC -0.0395
CGTGACAG 0.0683
ACCAGCCC -0.0337
ATTAAGAG 0.042
AACCGTCC -0.158
ACCTTAAC 0.0139
AGTTTCGC -0.047
GGTGTATA 0.133
GATGCCAC -0.164
GCGGTGCC -0.251
GATGCCTA 0.0242
CACTAGTA 0.206
GACTTACA 0.246
ATCGAGTC 0.0704
CTGCTGTC -0.0348
AACAGATA 0.157
ACCTATAA 0.0958
CCCGCTAA -0.182
GAGGAAAC -0.0465
CAGTGGGG -0.234
ACCAGGCC -0.0236
AATACTGG 0.0248
CCCAGCAC -0.239
GGGTACCC -0.274
CAAAGCCA -0.0873
CATACATC 0.251
CCCGGCCG -0.313
GCGTCCTA -0.0542
CTGCTAGA -0.0792
CAGACCCA -0.107
CGTAAAGA -0.00051
CGGTTGAC 0.00952
AGATTCTG -0.0214
CATATCAG 0.0708
GATTGCGA 0.037
AGACTCCG -0.111
CAAGCTAA 0.109
ACCCGACA 0.095
CCTATATA 0.0917
CGATTGAC 0.182
ATACGGGA -0.00619
AATATTTG 0.189
AGCGTCCA -0.0936
CTTCCTGA -0.0122
CAACTTCG -0.064
AGGGGAGG -0.181
AAACAGTG 0.131
CGCGGTGC -0.195
CCAGGGTC -0.221
TACGGCAA 0.0403
AGGCTGTC -0.00861
CCTGACAA 0.218
CGAACGAC 0.0606
GATCCGCA -0.0981
CCCGCATC -0.145
AGACCTCG -0.136
CCCGTCCA -0.219
ACCTGTAC 0.234
AACCCCAA -0.0321
ATTCCAGG -0.0214
AAGCGATT -0.0271
CCATAGTC -0.0479
ACAATGGT 0.0851
GAATGGTC -0.114
CTTCGGGA -0.0578
CCGCGTGA -0.123
TCAAGCAA 0.0149
AGCCGACG -0.14
CATTGCCA 0.0634
CCACTCCA -0.09
CGAGATCA -0.00379
ACGCGGCT -0.0981
AGCTACAT 0.265
CGAAAATC 0.138
TATCGTCA 0.142
ACTTCGTG 0.0289
CCATTCTA 0.0205
AGTACCTG 0.106
GACGTAAA -0.036
GCCTGCGC -0.251
ACACCGGA 0.0556
GATAAGAC 0.0381
GTAACCAA 0.111
ACTTTCAA -0.0131
CAGTGAAC 0.07
GAAGGGCC -0.169
GTCCAATA 0.0112
GAGACGCA -0.0777
GCTGCGTA -0.0415
GCGCGGAA -0.172
CAGGTGTA 0.225
CAGGTACG -0.00719
CGCAATCA 0.0581
AAGAAAAT 0.0543
CTATAAGC -0.00412

PBM E-score, active:
CATGTAGA 0.391

PBM E-score, ≥ 0.158:
GATAAGTA

PBM E-score, ≥ 0.137:
TAAATCGA
ATCCACAT

PBM E-score, ≥ -0.0594:
ACGCCAGA

From the supplement of paper PMC3724861
